Test results published in the supplement of paper PMC12217912.
The list shows a part of the results. The full chains were built here from the parent and the listed change. Inactive controls read about 0.05.

B1: TEV protease; numbered along this chain (parent)
chain: MGESLFKGPRDYNPISSSICHLTNESDGHTTSLYGIGFGPFIITNKHLFRRNNGTLVVQSLHGVFKVKDTTTLQQHLVDGRDMIIIRMPKDFPPFPQKLKFREPQREERICLVTTNFQTKSMSSMVSDTSCTFPSGDGIFWKHWIQTKDGQCGSPLVSTRDGFIVGIHSASNFTNTNNYFTSVPKNFMELLTNQEAQQWVSGWRLNADSVLWGGHKVFMVKPEEPFQPVKEATQL

Variants of: B1
Assay: raw area under fraction-flipped curve 0-4 h after induction (AUC4h, not background-subtracted), DNA-recorder readout of cleavage of the substrate (dimensionless); higher = more cleavage of the substrate by the protease variant
Conditions: temperature: 34 °C; time window: 0-4 h after rhamnose induction
Description: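 In vivo DNA recorder in E. coli TOP10(DE3) ΔrhaA at 34 °C. Each TEVp single-site mutant (parent TEVp 0) is paired with a single-site variant of the 7-mer TEVs (canonical ENLYFQ|S). The substrate sits between flexible linkers in a Bxb1-sfGFP-TEVs-SsrA fusion, so cleavage stabilises Bxb1 and speeds flipping of a recombination array, read by NGS. The value is the raw area under the fraction-flipped curve over 0-4 h after rhamnose induction (AUC4h), with ≥20 reads per time point. It is not background-subtracted; inactive controls average about 0.047.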
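Also: Bxb1 expression induced with 0.2% (w/v) L-rhamnose at OD600 near 0.5, cultures sampled hourly, flipped fraction per protease–substrate barcode pair counted by paired-end Illumina sequencing.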

Variant	area with substrate ENAYFQS	area with substrate ENCYFQS	area with substrate ENDYFQS	area with substrate ENEYFQS	area with substrate ENFYFQS	area with substrate ENGYFQS	area with substrate ENHYFQS	area with substrate ENMYFQS	area with substrate ENNYFQS	area with substrate ENPYFQS	area with substrate ENQYFQS	area with substrate ENRYFQS	area with substrate ENSYFQS	area with substrate ENTYFQS	area with substrate ENVYFQS	area with substrate ENWYFQS	area with substrate ENIYFQS	area with substrate ENKYFQS	area with substrate ENYYFQS
MGESLFKGPRDYNPISSSICHLTNESDGHTTSLYGIGFGPFIITNKHLFRRNNGTLVVQSLHGVFKVKDTTTLQQHLVDGRDMIIIRMPKDFPPFPQKLKFREPQREERICLVTTNFQTKSDSSMVSDTSCTFPSGDGIFWKHWIQTKDGQCGSPLVSTRDGFIVGIHSASNFTNTNNYFTSVPKNFMELLTNQEAQQWVSGWRLNADSVLWGGHKVFMVKPEEPFQPVKEATQL [M122D]	0.0679	0.0678	0.0537	0.0737	0.0684	0.0716	0.0625	0.0877	0.057	0.0587	0.0646	0.0601	0.0457	0.0524	0.0747	0.048	–	–	–
MGESLFKGPRDYNPISSSICHLTNESDGHTTSLYGIGFGPFIITNKHLFRRNNGTLVVQSLHGVFKVKDTTTLQQHLVDGRDMIIIRMPKDFPPFPQKLKFREPQREERICLVTTNFQTKSGSSMVSDTSCTFPSGDGIFWKHWIQTKDGQCGSPLVSTRDGFIVGIHSASNFTNTNNYFTSVPKNFMELLTNQEAQQWVSGWRLNADSVLWGGHKVFMVKPEEPFQPVKEATQL [M122G]	0.0743	–	0.0746	–	–	–	–	0.0887	–	–	–	–	0.0664	0.0635	0.0777	0.0635	–	–	–
MGESLFKGPRDYNPISSSICHLTNESDGHTTSLYGIGFGPFIITNKHLFRRNNGTLVVQSLHGVFKVKDTTTLQQHLVDGRDMIIIRMPKDFPPFPQKLKFREPQREERICLVTTNFQTKSSSSMVSDTSCTFPSGDGIFWKHWIQTKDGQCGSPLVSTRDGFIVGIHSASNFTNTNNYFTSVPKNFMELLTNQEAQQWVSGWRLNADSVLWGGHKVFMVKPEEPFQPVKEATQL [M122S]	0.0526	0.059	–	0.0666	0.0619	0.061	–	–	–	–	0.0689	–	0.0609	0.0991	0.0688	–	0.113	0.0572	0.0753
MGESLFKGPRDYNPISSSICHLTNESDGHTTSLYGIGFGPFIITNKHLFRRNNGTLVVQSLHGVFKVKDTTTLQQHLVDGRDMIIIRMPKDFPPFPQKLKFREPQREERICLVTTNFQTKSMFSMVSDTSCTFPSGDGIFWKHWIQTKDGQCGSPLVSTRDGFIVGIHSASNFTNTNNYFTSVPKNFMELLTNQEAQQWVSGWRLNADSVLWGGHKVFMVKPEEPFQPVKEATQL [S123F]	0.0648	0.061	0.0547	0.0583	0.0689	0.0626	–	0.0712	0.0554	–	0.0567	0.0718	0.0674	0.0598	0.0755	0.0597	–	0.0577	–
MGESLFKGPRDYNPISSSICHLTNESDGHTTSLYGIGFGPFIITNKHLFRRNNGTLVVQSLHGVFKVKDTTTLQQHLVDGRDMIIIRMPKDFPPFPQKLKFREPQREERICLVTTNFQTKSMSSMSSDTSCTFPSGDGIFWKHWIQTKDGQCGSPLVSTRDGFIVGIHSASNFTNTNNYFTSVPKNFMELLTNQEAQQWVSGWRLNADSVLWGGHKVFMVKPEEPFQPVKEATQL [V126S]	0.0573	0.0521	0.0659	–	0.0684	0.0591	0.0549	0.0827	0.069	–	0.0669	–	0.0675	0.0726	0.0887	0.0617	–	0.0704	0.0658
MGESLFKGPRDYNPISSSICHLTNESDGHTTSLYGIGFGPFIITNKHLFRRNNGTLVVQSLHGVFKVKDTTTLQQHLVDGRDMIIIRMPKDFPPFPQKLKFREPQREERICLVTTNFQTKSMSSMVFDTSCTFPSGDGIFWKHWIQTKDGQCGSPLVSTRDGFIVGIHSASNFTNTNNYFTSVPKNFMELLTNQEAQQWVSGWRLNADSVLWGGHKVFMVKPEEPFQPVKEATQL [S127F]	0.064	0.0631	0.0807	0.0516	0.055	0.0531	0.0563	0.11	0.0619	–	0.0643	–	0.06	0.061	–	0.0618	0.124	–	–
MGESLFKGPRDYNPISSSICHLTNESDGHTTSLYGIGFGPFIITNKHLFRRNNGTLVVQSLHGVFKVKDTTTLQQHLVDGRDMIIIRMPKDFPPFPQKLKFREPQREERICLVTTNFQTKSMSSMVVDTSCTFPSGDGIFWKHWIQTKDGQCGSPLVSTRDGFIVGIHSASNFTNTNNYFTSVPKNFMELLTNQEAQQWVSGWRLNADSVLWGGHKVFMVKPEEPFQPVKEATQL [S127V]	0.0674	0.072	0.0644	0.059	0.0639	0.0595	0.0555	–	–	0.0372	0.0574	–	0.0501	–	0.115	–	0.103	–	0.0473
MGESLFKGPRDYNPISSSICHLTNESDGHTTSLYGIGFGPFIITNKHLFRRNNGTLVVQSLHGVFKVKDTTTLQQHLVDGRDMIIIRMPKDFPPFPQKLKFREPQREERICLVTTNFQTKSMSSMVSDMSCTFPSGDGIFWKHWIQTKDGQCGSPLVSTRDGFIVGIHSASNFTNTNNYFTSVPKNFMELLTNQEAQQWVSGWRLNADSVLWGGHKVFMVKPEEPFQPVKEATQL [T129M]	0.0602	–	0.0604	–	0.0571	–	0.0564	–	–	0.0498	0.0473	0.0634	–	–	–	0.0597	–	0.056	0.0738
MGESLFKGPRDYNPISSSICHLTNESDGHTTSLYGIGFGPFIITNKHLFRRNNGTLVVQSLHGVFKVKDTTTLQQHLVDGRDMIIIRMPKDFPPFPQKLKFREPQREERICLVTTNFQTKSMSSMVSDSSCTFPSGDGIFWKHWIQTKDGQCGSPLVSTRDGFIVGIHSASNFTNTNNYFTSVPKNFMELLTNQEAQQWVSGWRLNADSVLWGGHKVFMVKPEEPFQPVKEATQL [T129S]	0.06	0.0632	0.0579	0.0558	0.0616	0.0527	–	0.0801	0.0696	0.0646	0.0487	–	0.0605	0.0617	–	–	–	0.0867	0.0877
